This test has as its target GTPase KRas (Homo sapiens) (UniProt P01116). Kind of test: Covalent labelling of cysteine mutants by fragments, read by mass spectrometry (AID 2202238). As to conditions: KRAS G12D cysteine mutants, disulfide tethering, MALDI-TOF labeling, stronger effect = higher value, fragment at 500 µM. The arrangement: protein at 5 µM with 500 µM competing thiol for 1.5 h.
Setting [1] is: measured here: G60C mutant labeling.
[2] abbreviates: measured here: G75C mutant labeling.
The mark [3] stands for this setting: measured here: H94C mutant labeling.
Where [4] appears, read: measured here: I36C mutant labeling.
Where [5] appears, read: measured here: L120C mutant labeling.
The mark [6] stands for this setting: measured here: M67C mutant labeling.
[7] abbreviates: measured here: M72C mutant labeling.
[8] abbreviates: measured here: N26C mutant labeling.
The mark [9] stands for this setting: measured here: N86C mutant labeling.
Setting [10] is: measured here: P121C mutant labeling.
Setting [11] is: measured here: S122C mutant labeling.
Where [12] appears, read: measured here: S136C mutant labeling.

The list shows a part of the results. Further columns of the screen follow, without active or inactive calls.

Chain of UniProt P01116 (P01116 whole entry, looked up, the tested form may be a part): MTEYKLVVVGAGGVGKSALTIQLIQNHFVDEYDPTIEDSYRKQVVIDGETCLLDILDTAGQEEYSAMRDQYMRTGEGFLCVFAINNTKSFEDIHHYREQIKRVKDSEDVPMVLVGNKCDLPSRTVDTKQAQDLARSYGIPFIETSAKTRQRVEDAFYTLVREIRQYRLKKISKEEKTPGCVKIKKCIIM

`CC1(C)Cc2ccc(C(=O)NCCS)c(O)c2O1`: the percent labeling worked out at 26.6% under setting [1]; 13.4% under setting [2]; 18.7% under setting [3]; 11.1% under setting [4]; 51.3% under setting [5]; 17% under setting [6]. The percent labeling was determined as 46.7% under setting [7]; 32% under setting [8]; 21.1% under setting [9]; 19.5% under setting [10]; 20% under setting [11]; 31.1% under setting [12].

`CN(Cc1nc2ccccc2[nH]1)C1CCN(C(=O)CCS)CC1`: the percent labeling by setting is: under setting [2], 18.1%; under setting [3], 32.5%; under setting [4], 53.7%; under setting [5], 28.4%; under setting [6], 82%; under setting [7], 30.6%. The percent labeling by setting is: under setting [9], 30.2%; under setting [10], 30.6%; under setting [11], 29.8%; under setting [12], 59.4%.

Regarding `Cc1nc2ccccc2c(C)c1C(=O)NCCS`, the percent labeling is, setting by setting: under setting [1], 44.2%; under setting [2], 23%; under setting [3], 32.7%; under setting [4], 28.2%; under setting [5], 27.4%; under setting [6], 31.9%. The percent labeling worked out at 33.7% under setting [7]; 51.1% under setting [8]; 33% under setting [9]; 54.6% under setting [10]; 25.3% under setting [11]; 51.9% under setting [12].

In the case of `O=C(CCS)NCc1nnc2n1CCNC2=O`, the percent labeling was 3.6% under setting [2]; 14.7% under setting [3]; 20.2% under setting [4]; 26.2% under setting [5]; 20.5% under setting [6]; 3.2% under setting [7]. The percent labeling runs as follows: under setting [9], 13.5%; under setting [10], 24.9%; under setting [11], 29%; under setting [12], 35.3%.

Consider `COc1cccc2c(=O)c(C)c(C(=O)NCCS)[nH]c12`, for which the percent labeling came out at 28.5% under setting [1]; 17.7% under setting [2]; 27.9% under setting [3]; 26.4% under setting [4]; 29.4% under setting [5]; 28.2% under setting [6]. In addition, the percent labeling by setting is: under setting [7], 44%; under setting [8], 53%; under setting [9], 29.6%; under setting [10], 79.3%; under setting [11], 27.8%; under setting [12], 46.7%.

As to `O=C(CCS)NCCn1nc2ccccn2c1=O`, the percent labeling reads like this: under setting [2], 6.6%; under setting [3], 20.2%; under setting [4], 33.8%; under setting [5], 26.6%; under setting [6], 28.9%; under setting [7], 4.6%. Also, the percent labeling turned out to be 17% under setting [9], 29.5% under setting [10], 29.7% under setting [11] and 46.8% under setting [12].

Turning to `O=C(CCS)Nc1cn(Cc2ccccc2)nn1`, the percent labeling reads like this: under setting [2], 10.4%; under setting [3], 13.3%; under setting [4], 34.3%; under setting [5], 17.4%; under setting [6], 28.2%; under setting [7], 31.6%. The percent labeling worked out at 5.7% under setting [9], 17.9% under setting [10], 20.4% under setting [11] and 37.4% under setting [12].

Take `O=C(Cn1ncc2ccccc2c1=O)NCCS`: the percent labeling stood at 35.6% under setting [1]; 17.3% under setting [2]; 27.8% under setting [3]; 29.9% under setting [4]; 54.3% under setting [5]; 35.5% under setting [6]. In addition, the percent labeling is, setting by setting: under setting [7], 34.8%; under setting [8], 36.6%; under setting [9], 29.3%; under setting [10], 34.9%; under setting [11], 32.4%; under setting [12], 44.4%.

Regarding `O=C(CCS)NCCc1cccc(C(F)(F)F)n1`, the percent labeling is, setting by setting: under setting [2], 14.2%; under setting [3], 41%; under setting [4], 44.1%; under setting [5], 37.7%; under setting [6], 49.2%; under setting [7], 35.7%. For the same molecule, the percent labeling under setting [9] turned out to be 38.9%, the percent labeling under setting [10] turned out to be 41.8%, the percent labeling under setting [11] is 42.5% and the percent labeling under setting [12] was 56%.

As to `CC(CC(=O)NCCS)Cc1ccc(Cl)cc1` (stereo not drawn), the percent labeling is, setting by setting: under setting [1], 36.8%; under setting [2], 13.3%; under setting [3], 15.9%; under setting [4], 10.7%; under setting [5], 21.2%; under setting [6], 13.1%. Moreover, the percent labeling is 22.3% under setting [7]; 39.7% under setting [8]; 6.4% under setting [9]; 15.1% under setting [10]; 10.5% under setting [11]; 16.2% under setting [12].

As to `O=C(CCS)NCCc1nc2ccc(F)cc2[nH]1`, the percent labeling came out at 14.5% under setting [2]; 30.4% under setting [3]; 50.3% under setting [4]; 32.2% under setting [5]; 43.2% under setting [6]; 33% under setting [7]. The same molecule gave a percent labeling under setting [9] of 21.4%, a percent labeling under setting [10] of 35.2%, a percent labeling under setting [11] of 27.5% and a percent labeling under setting [12] of 50.5%.

On to `O=C(CCS)Nc1cnc(N2CCOCC2)c(Br)c1`, for which the percent labeling under setting [2] came out at 15.1%; the percent labeling under setting [3] was determined as 22.4%; the percent labeling under setting [4] came to 18.7%; the percent labeling under setting [5] was 21.4%; the percent labeling under setting [6] was found to be 18%; the percent labeling under setting [7] came out at 46.6%. Moreover, the percent labeling was determined as 8.9% under setting [9], 17.4% under setting [10], 14.4% under setting [11] and 37.8% under setting [12].

In the case of `COc1c(C(=O)NCCS)sc(Cl)c1Cl`, the percent labeling reads like this: under setting [1], 54.9%; under setting [2], 28.4%; under setting [3], 25.5%; under setting [4], 9.9%; under setting [5], 18.9%; under setting [6], 14.6%. Moreover, the percent labeling is 32.8% under setting [7]; 25.7% under setting [8]; 14.5% under setting [9]; 11.1% under setting [10]; 11.7% under setting [11]; 18.2% under setting [12].

Regarding `O=C(CCS)Nc1ccn(CCOCCO)n1`, the percent labeling is, setting by setting: under setting [2], 7.4%; under setting [3], 26.3%; under setting [4], 28.9%; under setting [5], 32.4%; under setting [6], 22%; under setting [7], 15.6%. The percent labeling came out at 23.8% under setting [9], 28.3% under setting [10], 32.6% under setting [11] and 41.1% under setting [12].

On to `O=C(NCCS)C1C2C=CC(C2)C1c1ccccc1` (stereo not drawn), for which the percent labeling by setting is: under setting [1], 32.9%; under setting [2], 6.1%; under setting [3], 10.3%; under setting [4], 9.3%; under setting [5], 15.4%; under setting [6], 17.5%. In addition, the percent labeling was found to be 11% under setting [7]; 17.9% under setting [8]; 4.8% under setting [9]; 11.5% under setting [10]; 9.6% under setting [11]; 30.3% under setting [12].

`O=C(NCCS)c1cc(Br)cn(C2CC2)c1=O`: the percent labeling was 41.1% under setting [1]; 18.7% under setting [2]; 33.4% under setting [3]; 24.8% under setting [4]; 40.2% under setting [5]; 36.5% under setting [6]. Also, the percent labeling runs as follows: under setting [7], 44.2%; under setting [8], 37.1%; under setting [9], 19%; under setting [10], 22.6%; under setting [11], 23.2%; under setting [12], 46.5%.

On to `CC(C)(C)OC(=O)N1CCC12CCN(C(=O)CCS)CC2`, for which the percent labeling runs as follows: under setting [2], 21.2%; under setting [3], 32.1%; under setting [4], 33%; under setting [5], 31.9%; under setting [6], 39.5%; under setting [7], 25.9%. In addition, the percent labeling runs as follows: under setting [9], 23.6%; under setting [10], 29.2%; under setting [11], 31.2%; under setting [12], 49.4%.

In the case of `O=C(CC1COCCN1CC(F)(F)F)NCCS` (stereo not drawn), the percent labeling runs as follows: under setting [1], 26.6%; under setting [2], 9.8%; under setting [3], 28.1%; under setting [4], 19.3%; under setting [5], 33.2%; under setting [6], 27.4%. In addition, the percent labeling worked out at 16.9% under setting [7]; 29.1% under setting [8]; 24.8% under setting [9]; 30% under setting [10]; 29.7% under setting [11]; 36% under setting [12].

On to `O=C(NCCS)c1ccc(-n2nccc2-c2ccc(F)cc2)cc1`, for which the percent labeling under setting [1] amounted to 18.8%; the percent labeling under setting [2] worked out at 13.8%; the percent labeling under setting [3] was 12.3%; the percent labeling under setting [4] is 7.7%; the percent labeling under setting [5] is 11%; the percent labeling under setting [6] is 8.7%. Also, the percent labeling runs as follows: under setting [7], 27.7%; under setting [8], 20.8%; under setting [9], 5.9%; under setting [10], 9.2%; under setting [11], 5.3%; under setting [12], 13%.

On to `Cc1cc(C)n(-c2ccc(Cl)c(C(=O)NCCS)n2)n1`, for which the percent labeling reads like this: under setting [1], 19.7%; under setting [2], 8.5%; under setting [3], 17%; under setting [4], 9.3%; under setting [5], 12.4%; under setting [6], 12.8%. In addition, the percent labeling under setting [7] amounted to 21%; the percent labeling under setting [8] was 25.4%; the percent labeling under setting [9] came out at 6.8%; the percent labeling under setting [10] was 10.5%; the percent labeling under setting [11] amounted to 8.1%; the percent labeling under setting [12] came out at 16.7%.

Take `Cc1ccc(C(O)(CC(=O)NCCS)C(F)(F)F)o1` (stereo not drawn): the percent labeling was 56.1% under setting [1]; 14% under setting [2]; 31.6% under setting [3]; 25.9% under setting [4]; 39.3% under setting [5]; 28.9% under setting [6]. In addition, the percent labeling stood at 36.4% under setting [7]; 31.7% under setting [8]; 35.4% under setting [9]; 31.2% under setting [10]; 30% under setting [11]; 41.2% under setting [12].

`O=C(NCCS)c1c[nH]cc(C(F)(F)F)c1=O` had a percent labeling under setting [1] of 39.5%; a percent labeling under setting [2] of 22.6%; a percent labeling under setting [3] of 31.9%; a percent labeling under setting [4] of 22.5%; a percent labeling under setting [5] of 66.9%; a percent labeling under setting [6] of 30.2%. For the same molecule, the percent labeling reads like this: under setting [7], 25.8%; under setting [8], 42.2%; under setting [9], 27.8%; under setting [10], 33.6%; under setting [11], 35.2%; under setting [12], 42.5%.

As to `COc1c(F)c(F)cc2c(=O)c(C(=O)NCCS)cn(C3CC3)c12`, the percent labeling by setting is: under setting [1], 18.3%; under setting [2], 12%; under setting [3], 7.8%; under setting [4], 4.6%; under setting [5], 4.8%; under setting [6], 5%. In addition, the percent labeling reads like this: under setting [7], 0%; under setting [8], 18.4%; under setting [9], 0%; under setting [10], 4.1%; under setting [11], 0%; under setting [12], 9.1%.
